Data from the supplement of paper PMC12217912.
The other results are listed elsewhere or left out. The full chains were built here from the parent and the listed change. Values near 0.05 are background.

B1: TEV protease; numbered along this chain (parent)
chain: MGESLFKGPRDYNPISSSICHLTNESDGHTTSLYGIGFGPFIITNKHLFRRNNGTLVVQSLHGVFKVKDTTTLQQHLVDGRDMIIIRMPKDFPPFPQKLKFREPQREERICLVTTNFQTKSMSSMVSDTSCTFPSGDGIFWKHWIQTKDGQCGSPLVSTRDGFIVGIHSASNFTNTNNYFTSVPKNFMELLTNQEAQQWVSGWRLNADSVLWGGHKVFMVKPEEPFQPVKEATQL

Variants of: B1
Experiment: raw area under fraction-flipped curve 0-4 h after induction (AUC4h, not background-subtracted), DNA-recorder readout of cleavage of the substrate (dimensionless); higher = more cleavage of the substrate by the protease variant
Settings: temperature: 34 °C; time window: 0-4 h after rhamnose induction
Procedure: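 In vivo DNA recorder in E. coli TOP10(DE3) ΔrhaA at 34 °C. Each TEVp single-site mutant (parent TEVp 0) is paired with a single-site variant of the 7-mer TEVs (canonical ENLYFQ|S). The substrate sits between flexible linkers in a Bxb1-sfGFP-TEVs-SsrA fusion, so cleavage stabilises Bxb1 and speeds flipping of a recombination array, read by NGS. The value is the raw area under the fraction-flipped curve over 0-4 h after rhamnose induction (AUC4h), with ≥20 reads per time point. It is not background-subtracted; inactive controls average about 0.047.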
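Also: Bxb1 expression induced with 0.2% (w/v) L-rhamnose at OD600 near 0.5, cultures sampled hourly, flipped fraction per protease–substrate barcode pair counted by paired-end Illumina sequencing.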

| Variant | area with substrate ENAYFQS | area with substrate ENCYFQS | area with substrate ENDYFQS | area with substrate ENEYFQS | area with substrate ENFYFQS | area with substrate ENHYFQS | area with substrate ENKYFQS | area with substrate ENNYFQS | area with substrate ENPYFQS | area with substrate ENQYFQS | area with substrate ENSYFQS | area with substrate ENTYFQS | area with substrate ENVYFQS | area with substrate ENWYFQS | area with substrate ENIYFQS | area with substrate ENRYFQS | area with substrate ENGYFQS | area with substrate ENMYFQS | area with substrate ENYYFQS |
| --- | --- | --- | --- | --- | --- | --- | --- | --- | --- | --- | --- | --- | --- | --- | --- | --- | --- | --- | --- |
| MGESLFKGPRDYNPISSSICHLTNEDDGHTTSLYGIGFGPFIITNKHLFRRNNGTLVVQSLHGVFKVKDTTTLQQHLVDGRDMIIIRMPKDFPPFPQKLKFREPQREERICLVTTNFQTKSMSSMVSDTSCTFPSGDGIFWKHWIQTKDGQCGSPLVSTRDGFIVGIHSASNFTNTNNYFTSVPKNFMELLTNQEAQQWVSGWRLNADSVLWGGHKVFMVKPEEPFQPVKEATQL [S26D] | 0.0623 | 0.0598 | 0.0629 | 0.0669 | 0.0603 | 0.0631 | 0.0496 | 0.0585 | 0.0682 | 0.0562 | 0.0736 | 0.068 | 0.0661 | 0.0828 | – | – | – | – | – |
| MGESLFKGPRDYNPISSSICHLTMESDGHTTSLYGIGFGPFIITNKHLFRRNNGTLVVQSLHGVFKVKDTTTLQQHLVDGRDMIIIRMPKDFPPFPQKLKFREPQREERICLVTTNFQTKSMSSMVSDTSCTFPSGDGIFWKHWIQTKDGQCGSPLVSTRDGFIVGIHSASNFTNTNNYFTSVPKNFMELLTNQEAQQWVSGWRLNADSVLWGGHKVFMVKPEEPFQPVKEATQL [N24M] | 0.0536 | 0.0657 | 0.0704 | 0.0406 | – | – | 0.0568 | 0.0586 | – | 0.0535 | 0.0585 | – | – | 0.059 | 0.165 | 0.0606 | – | – | – |
| MGESLFKGPRDYNPISSSIPHLTNESDGHTTSLYGIGFGPFIITNKHLFRRNNGTLVVQSLHGVFKVKDTTTLQQHLVDGRDMIIIRMPKDFPPFPQKLKFREPQREERICLVTTNFQTKSMSSMVSDTSCTFPSGDGIFWKHWIQTKDGQCGSPLVSTRDGFIVGIHSASNFTNTNNYFTSVPKNFMELLTNQEAQQWVSGWRLNADSVLWGGHKVFMVKPEEPFQPVKEATQL [C20P] | 0.0507 | 0.0246 | 0.0503 | 0.0477 | 0.047 | 0.0479 | 0.0544 | 0.0538 | 0.0527 | 0.0538 | 0.0448 | – | 0.0491 | 0.029 | 0.0572 | 0.0538 | 0.0661 | 0.0706 | – |
| MGESLFKGPRDYNPISSSMCHLTNESDGHTTSLYGIGFGPFIITNKHLFRRNNGTLVVQSLHGVFKVKDTTTLQQHLVDGRDMIIIRMPKDFPPFPQKLKFREPQREERICLVTTNFQTKSMSSMVSDTSCTFPSGDGIFWKHWIQTKDGQCGSPLVSTRDGFIVGIHSASNFTNTNNYFTSVPKNFMELLTNQEAQQWVSGWRLNADSVLWGGHKVFMVKPEEPFQPVKEATQL [I19M] | 0.0609 | 0.067 | 0.0628 | 0.039 | 0.0568 | 0.0421 | 0.0787 | 0.0601 | 0.0557 | 0.0568 | 0.0707 | 0.072 | 0.081 | 0.0546 | 0.105 | 0.0687 | – | – | 0.0394 |
| MGESLFKGPRDYNPISSSNCHLTNESDGHTTSLYGIGFGPFIITNKHLFRRNNGTLVVQSLHGVFKVKDTTTLQQHLVDGRDMIIIRMPKDFPPFPQKLKFREPQREERICLVTTNFQTKSMSSMVSDTSCTFPSGDGIFWKHWIQTKDGQCGSPLVSTRDGFIVGIHSASNFTNTNNYFTSVPKNFMELLTNQEAQQWVSGWRLNADSVLWGGHKVFMVKPEEPFQPVKEATQL [I19N] | 0.0475 | 0.0538 | 0.0507 | 0.0558 | 0.0456 | 0.0572 | – | – | 0.0569 | 0.052 | 0.0547 | 0.0464 | – | – | – | 0.0519 | 0.046 | 0.0618 | 0.0523 |
